Assay results as given in PubChem BioAssay AID463173 (ICCB-Longwood Screening Facility, Harvard Medical School, 2010).
In all, about 52,000 compounds went through this assay and about 1,700 (3.3%) were called active. Cut-off read from the data, not from the text of the source: active = survival mostly below about 52% (no sharp cut-off); inactive = mostly above about 56%. Some of the results follow.

tested on: Wild type; test: growth inhibition of S. aureus wild type versus tarO mutant, primary screen, teichoic acid synthesis inhibitors, RN4220, OD600 (AID 463173); conditions: S. aureus RN4220 wild type/DeltatarO growth, OD600, 18 h, hits give low values, screened at 18.75 µg/mL (by protocol)

Compound | survival
O=C(Nc1cccc(F)c1)c1ccc2snnc2c1 | inactive: 83%
Cc1ccc(C(=O)N2CCN(c3ncnc4c3cnn4-c3ccccc3)CC2)cc1 | inactive: 98%
Cc1ccc(-n2nc(C(=O)N3CCC(C)CC3)c(=O)n(C)c2=O)cc1 | inactive: 88%
Cc1ccc(Cl)cc1-n1ncc2c(NC3CCCCCC3)ncnc21 | inactive: 134%
O=C(NCc1ccc(Cl)cc1)c1cnc(N2CCCCC2)c2ccccc12 | inactive: 72%
O=c1cc(CSc2nnc(-c3ccccc3)o2)c2ccccc2[nH]1 | inactive: 110%
Cc1cccc(N2CCN(CCNC(=O)C3COc4ccccc4C3)CC2)c1C (configuration not stated) | inactive: 118%
O=C(O)c1cc(-n2c(/C=C\c3ccc(F)cc3)nc3ccccc3c2=O)ccc1Cl | inactive: 67%
Cc1ccc(CNC(=O)C(CC(C)C)NS(=O)(=O)c2ccc3c(c2)oc(=O)n3C)cc1 (configuration not stated) | inactive: 89%
CSc1ccc(CCNC(=O)CCc2c(C)nc3c(c(C)nn3-c3ccccc3)c2C)cc1 | inactive: 92%
O=C(NC1CC(=O)N(c2cccc(F)c2)C1)c1ccc(Br)o1 (configuration not stated) | inactive: 75%
Cc1ccc(Cc2nc3ccccc3nc2SCC(=O)Nc2ccc3c(c2)OCO3)cc1 | inactive: 78%
C/C=C(\C)C(=O)OC1c2c(ccc3ccc(=O)oc23)OC(C)(C)C1OC(C)=O (configuration not stated) | inactive: 106%
Cc1ccc(S(=O)(=O)NCCS(=O)(=O)N2CCN(c3ccccc3)CC2)cc1 | inactive: 84%
COc1ccc(CNC(=O)C2CCN(Cc3nc(-c4ccc(Cl)cc4)oc3C)CC2)cc1 | inactive: 89%
Cc1nc(N2CCOCC2)c2c(C(=O)Nc3cccc(C(F)(F)F)c3)c(C)oc2n1 | inactive: 78%
CC(=O)c1ccc(NC(=O)CCSc2nc(-c3ccco3)cc(C(F)(F)F)n2)cc1 | inactive: 66%
Cc1c(S(=O)(=O)c2cccc(Cl)c2)nnn1-c1cccc(C(F)(F)F)c1 | inactive: 79%
CC(C)CC(=O)Nc1ccc(Cl)cn1 | inactive: 107%
O=C(CSc1nnnn1Cc1ccccc1)c1ccccc1 | inactive: 116%
CCCCN(C)CCCNC(=O)C1CCN(c2nc3ccc(CC)cc3s2)CC1 | inactive: 59%
Cc1sc2ncn(CC(=O)N3CCC(C)CC3)c(=O)c2c1C | inactive: 110%

Compound | survival
O=C(O)C1C2C=CC(C2)C1C(=O)N(Cc1ccccc1)Cc1ccccc1 (configuration not stated) | inactive: 103%
COC(=O)c1c(-c2ccc(Cl)cc2)noc1N1CCN(c2ccc(C)cc2C)CC1 | inactive: 78%
CC(C)c1ccc(NC(=O)C2CCCN(S(=O)(=O)c3cccc4cccnc34)C2)cc1 (configuration not stated) | inactive: 74%
COc1ccc(OC)c(NC(=O)c2noc3c2CCCC3)c1 | inactive: 80%
CCOC(=O)Cc1ccc(NC(=O)N2CCOc3ccc(C)cc32)cc1 | inactive: 81%
CCOC(=O)c1cc(S(=O)(=O)N2CCN(c3ccccc3)CC2)[nH]n1 | inactive: 73%
Cc1ccc(OC(C)C(=O)Nc2nonc2-c2ccc(Br)cc2)cc1C (configuration not stated) | inactive: 72%
CCOC(=O)Cn1c(=O)oc2cc(S(=O)(=O)N3CCN(c4cccc(C)c4C)CC3)ccc21 | inactive: 78%
Cc1ccc2nc(N(Cc3cccnc3)C(=O)COc3ccccc3)sc2c1 | inactive: 126%
O=C(Nc1c(Cl)cccc1Cl)c1cc(-c2ccc3c(c2)OCO3)on1 | inactive: 82%
CCc1nnc2c3ccccc3nc(Nc3ccc(C(C)=O)cc3)n12 | inactive: 85%
CCOc1ccccc1NC(=O)CSc1nc2c(oc3ccccc32)c(=O)n1-c1ccc(C)c(C)c1 | inactive: 86%
COc1cc(OC)c(OC)cc1/C=C/c1nc2cc3ccccc3cc2c(=O)n1-c1ccc(Cl)cc1 | inactive: 73%
Cc1ccc(Nc2c(-c3c[nH]c4ccccc34)nc3cc(C)ccn23)cc1 | inactive: 68%
Cc1ccc(Oc2c(C(F)(F)F)oc3c(CN4CCCCC4C)c(O)ccc3c2=O)cc1 (configuration not stated) | inactive: 77%
COc1ccc(C(=O)NCC(c2cccnc2)N2CCc3ccccc32)cc1 (configuration not stated) | inactive: 81%
CC(C)OCCCNC(=O)c1ccc2c(c1)N(Cc1c(F)cccc1Cl)C(=O)c1ccccc1S2 | inactive: 100%
COc1ccc(-c2nn3c(=O)cc(CN4CCN(C(=O)c5ccc(C(C)(C)C)cc5)CC4)nc3s2)cc1 | inactive: 65%
O=C(CCC1N=C2c3ccccc3N=C(SCc3ccc(F)cc3)N2C1=O)NCc1cccs1 (configuration not stated) | inactive: 131%
CC1=C(c2ccc(C)c(C)c2)S(=O)(=O)N(Cc2ccc(C(=O)NCc3cccc(C)c3)cc2)C1=O | inactive: 79%
Cc1cccc(NC(=O)c2oc3ccccc3c2NC(=O)Cc2coc3c(C)c(C)ccc23)c1 | inactive: 94%
CCC(C(=O)Nc1cc(Cl)ccc1OC)n1nc(-c2ccccc2)ccc1=O (configuration not stated) | inactive: 42%

Compound | survival
CCOC(=O)C1=C(CS(=O)(=O)c2cccc(C(F)(F)F)c2)NC(=O)NC1c1cccc(OC)c1 (configuration not stated) | inactive: 76%
COc1ccc(Cl)cc1C(=O)Nc1sc2c(c1C(=O)OC(C)C)CCCC2 | inactive: 80%
O=C(C1CC1)N1CCc2cc(Br)cc(S(=O)(=O)N3CCN(c4cccc(C(F)(F)F)c4)CC3)c21 | inactive: 67%
COc1ccccc1CNC(=O)C1CCCN(c2nc3ccccc3n3cccc23)C1 (configuration not stated) | inactive: 65%
COc1ccccc1NC(=O)C1=C(C)Nc2c(C(=O)Nc3ccc(F)cc3)cnn2C1c1cccc([N+](=O)[O-])c1 (configuration not stated) | inactive: 73%
CCCCN(C)c1nc2c(S(=O)(=O)c3ccc(CC)cc3)nnn2c2ccc(Cl)cc12 | inactive: 86%
COc1ccc(NC(=O)Cn2c(=O)n(-c3ccc(OC)c(OC)c3)c(=O)c3ccccc32)cc1 | inactive: 87%
COc1cc(C(CC(=O)NCc2ccc(F)cc2)N2Cc3ccccc3C2=O)cc(OC)c1OC (configuration not stated) | inactive: 75%
CC(=O)N1CCc2cc(Br)cc(S(=O)(=O)N3CCN(c4cccc(C(F)(F)F)c4)CC3)c21 | inactive: 148%
O=C(Nc1ccccc1)NC1(C(=O)Nc2ccc(-n3cnnn3)cc2)CCCCC1 | inactive: 123%
Cc1noc(/C=C/c2cccs2)c1S(=O)(=O)N1CCC(C(=O)Nc2ccc(F)c(Cl)c2)CC1 | inactive: 77%
COc1ccc(C(F)(F)F)cc1NC(=O)c1sc2nc(-c3cccs3)ccc2c1N | inactive: 93%
CC(=O)c1ccc(N2CCN(c3ncnc4c3c(-c3ccccc3)cn4-c3cccc(C)c3)CC2)cc1 | inactive: 126%
CCOc1ccc(NC(=O)c2ccc(NC(=O)N3CCSc4ncccc43)cc2)cc1 | inactive: 64%
COC(=O)c1ccccc1NC(=O)c1ccc(COc2ccccc2Cl)o1 | inactive: 68%
COc1ccc(C2CC(=O)c3cc(-c4nc(-c5cccc(Cl)c5)cs4)c(=O)[nH]c3C2)cc1OC (configuration not stated) | inactive: 148%
CCOC(=O)c1ccc(NC(=O)c2c(-c3c(F)cccc3Cl)noc2C)cc1 | inactive: 83%
CCC(=O)N1CCc2cc(Br)cc(S(=O)(=O)N3CCC(C(=O)NCCCOC(C)C)CC3)c21 | inactive: 133%
Cc1cccc(N2CCN(c3ncnc4c3nc3n4CCCCC3)CC2)c1C | inactive: 76%
O=C(NC1CCCCC1)c1ccc(Cn2c(SCc3ccccc3F)nc3cccnc32)cc1 | inactive: 66%
COc1cccc(C(=O)Nc2cccc(C(=O)OCc3cc(=O)n4nc(C5CC5)sc4n3)c2)c1 | inactive: 67%
Nc1c(-c2nc(-c3cccs3)no2)nnn1-c1ccc(Cl)cc1 | inactive: 89%

Compound | survival
O=C(Cn1cc(C(=O)c2ccco2)c2ccccc21)Nc1ccc(Br)cc1 | inactive: 126%
CCOC(=O)c1cnn(-c2ccc(C(=O)Nc3cc(OC)c(OC)c(OC)c3)cc2)c1N | inactive: 78%
CSc1ncc2c(n1)-c1ccccc1N(Cc1ccc(Cl)cc1)S2(=O)=O | inactive: 88%
O=C(CSc1ccccc1)N1CCc2c([nH]c3ccccc23)C1c1ccc(F)cc1 (configuration not stated) | inactive: 71%
CC1CCN(S(=O)(=O)c2cn(CC(=O)Nc3cccc(C(F)(F)F)c3)c(=O)c3ccccc23)CC1 | inactive: 65%
COC(=O)c1cc2oc3ccccc3c2n1Cc1nc(-c2ccc(OC)cc2)oc1C | inactive: 80%
CCn1c(C(=O)NCCc2ccc(OC)c(OC)c2)cc2sc(Cl)cc21 | inactive: 63%
CCCCNc1nc(Oc2ccc(OCC)nn2)nc(N2CCOCC2)n1 | inactive: 91%
COc1cccc(NC(=O)c2ccc3nc(CCc4ccccc4)oc3c2)c1 | inactive: 94%
COc1ccc(Cl)cc1NC(=O)c1c(NCc2ccc(C)o2)sc2c1CCCCC2 | inactive: 80%
CCC1CCCCN1C(=O)Cn1c(=O)n(CCCCCC(=O)NCc2ccccc2)c(=O)c2sccc21 (configuration not stated) | inactive: 75%
CSc1ncc(Cl)c(C(=O)Nc2ccc(NC(C)=O)cc2)n1 | inactive: 83%
COc1cccc(CSc2nc3ccccc3c3nc(CCn4c(C)nc5ccccc54)nn23)c1 | inactive: 85%
CCCn1c2ccccc2c2cnn(CC(=O)N(C)c3ccc(F)cc3)c(=O)c21 | inactive: 159%
CCn1c(COc2cccc(C)c2)nnc1SCC(=O)NC(C)(C)C | inactive: 99%
Cc1ccc(-n2ncc(C(=O)NCc3ccccc3C)c2-n2cccc2)cc1 | inactive: 88%
O=C(NCc1ccc2c(c1)CCN2C(=O)c1ccc(F)cc1)c1cc2ccccc2[nH]1 | inactive: 99%
COc1ccc(-c2[nH]c3ccccc3c2SCCNC(=O)c2cc(OC)c(OC)c(OC)c2)cc1 | inactive: 74%
COc1ccccc1CNC(=O)CCC(=O)N1CC2CCCN2c2ccccc21 (configuration not stated) | inactive: 80%
CCCCn1c(SCC(=O)N2CCCCC2)nc2ccccc2c1=O | inactive: 110%
Cc1cccc(C)c1OCCn1c(C2CC(=O)N(c3cccc(Cl)c3)C2)nc2ccccc21 (configuration not stated) | inactive: 84%
